Paper PMC6212790
Some of the results follow. At the low end of the ranking, values are background and their order means little.

Target: T1, GST-Rok (full length) (UniProt O34857)
T1 sequence: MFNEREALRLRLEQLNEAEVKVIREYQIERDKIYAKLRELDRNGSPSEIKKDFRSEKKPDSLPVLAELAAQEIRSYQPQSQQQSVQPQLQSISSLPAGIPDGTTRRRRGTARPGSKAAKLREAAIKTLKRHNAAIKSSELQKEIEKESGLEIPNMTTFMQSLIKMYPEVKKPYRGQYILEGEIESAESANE
Assay: protein binding microarray;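 also: rank score from −0.5 (least bound) to 0.5 (best bound)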
Conditions: Rok is a gene silencer of Bacillus subtilis; high values mean tight binding; most listed sequences are background and not binding sites; double strand, one strand shown

Row | Sequence | binding signal [E-score]
1 | CCCCGCCG | -0.378
2 | GTCCAAAC | 0.0166
3 | CTTGAAAA | -0.0933
4 | AGTAGAAA | 0.42
5 | GTAGAACA | 0.249
6 | ACCTGAGA | -0.148
7 | AGTACTGG | 0.156
8 | ATACCCAC | 0.142
9 | TAAGATCA | 0.231
10 | CTGGCTAA | -0.228
11 | CTTTGATC | 0.0707
12 | CGGATATA | 0.151
13 | AACCGTTC | -0.0678
14 | AACGTTAG | 0.344
15 | AGGAATCA | 0.0547
16 | GGTTTCTA | 0.334
17 | CATCATTA | 0.0295
18 | AACCTCGT | -0.155
19 | ATCCACTC | -0.0458
20 | CGCTCCAG | -0.146
21 | CGAGAAAC | 0.0424
22 | CTCGTGTC | -0.282
23 | ATATCGGG | 0.0322
24 | CGGGACAA | -0.213
25 | ACTGACCA | -0.0122

Row | Sequence | binding signal [E-score]
26 | AGAGCAAA | -0.0912
27 | CATTGCAG | -0.201
28 | GGTACATA | 0.196
29 | ACCGCAGA | -0.0176
30 | AATGCTCT | -0.0117
31 | TGGTTAAA | 0.0539
32 | CATAAATC | 0.118
33 | AATGGAGG | -0.114
34 | CAAGTACG | 0.058
35 | AGATCGAT | 0.183
36 | GCGTTCCA | 0.148
37 | TCCAGTAA | 0.0498
38 | AGTTTGGC | 0.0399
39 | CGGAACTA | 0.279
40 | ATTTTTTA | 0.0689
41 | AACTCTCT | -0.0592
42 | AAACCAAT | 0.185
43 | AGGGCTCC | -0.299
44 | ACTTTCTA | 0.386
45 | AGGTAAGC | -0.0863
46 | ATCTCCAG | 0.113
47 | AGAGCGTC | -0.225
48 | AAGTCAAC | -0.021
49 | ACGTGACC | -0.0612
50 | GCTAAGTA | 0.147

Row | Sequence | binding signal [E-score]
51 | ACGTTTCC | -0.0724
52 | ACCAGTAT | 0.255
53 | AGTATGTC | 0.154
54 | CGTACCCC | -0.301
55 | GATGATTA | 0.229
56 | CAGACACG | 0.00984
57 | ACCTTTAC | 0.0562
58 | ATAATTTA | 0.397
59 | ACAGTTTC | -0.0134
60 | AGCCCGAA | -0.159
61 | CTGATAGC | 0.14
62 | AGCTTGTA | 0.228
63 | CCACTGAC | -0.105
64 | AATTCACT | 0.0674
65 | ACGCCCTG | -0.384
66 | ATGTCAAG | 0.0919
67 | GAGGTGCA | -0.246
68 | AACACTAA | 0.152
69 | CGAAACTC | -0.0462
70 | GACTCTCC | -0.153
71 | ACTAGTAT | 0.422
72 | CACTTGCA | -0.0121
73 | AAAAGCTT | -0.035
74 | ACTCAGTA | 0.167
75 | ACATCGTC | 0.128

Row | Sequence | binding signal [E-score]
76 | CGGTATTA | 0.257
77 | ACATCTCG | -0.0379
78 | ACCACTAA | 0.172
79 | ATGGCACC | -0.128
80 | CATTCGGG | -0.163
81 | GAAATTGA | 0.0154
82 | CGCGAACG | -0.101
83 | CACCAGAA | -0.0113
84 | AGCTGTAG | 0.11
85 | AGAAAGTG | 0.115
86 | CCAACAAA | -0.0217
87 | CTCACCAG | -0.15
88 | ACGTCTCG | -0.172
89 | CCTAGCGC | -0.112
90 | AGGGTCCG | -0.278
91 | CCCAGCCA | -0.373
92 | CAAGGGTG | -0.0861
93 | ACTGCGCC | -0.255
94 | CCGGACAG | -0.222
95 | AGGCGTCA | -0.313
96 | CCATCGAG | 0.047
97 | CGACGTAC | -0.0209
98 | AATGCCAG | -0.0573
99 | AAAAAGCC | -0.0675
100 | GCTTAAAA | -0.00971

Row | Sequence | binding signal [E-score]
101 | ACCTGGCC | -0.116
102 | AGATGCAG | -0.053
103 | GAACATAA | 0.168
104 | CTGCTTCC | -0.198
105 | AATAAGTC | 0.21
106 | CCTTAGCC | -0.143
107 | ATTACTTA | 0.301
108 | ATCGTTGA | -0.0442
109 | CGTAACTA | 0.304
110 | ATAGACGA | 0.0654
111 | ACCCCCGG | -0.354
112 | CATTGGAC | -0.0936
113 | CACGTCGA | 0.132
114 | ACTAGAAG | 0.215
115 | CCTTAGAA | 0.106
116 | ATACGATA | 0.366
117 | GGAGCAAA | -0.202
118 | ACTGTACG | 0.0892
119 | AAAGTATA | 0.293
120 | CAGCTAAG | -0.00322
121 | TGCAACAA | 0.163
122 | CCCTTGTA | 0.0458
123 | CAATTATA | 0.363
124 | ACAGGCCG | -0.0161
125 | AGGTCCTA | -0.0844

Row | Sequence | binding signal [E-score]
126 | CGTCACTA | -0.0147
127 | AACGTGGT | -0.00331
128 | CTATCGGA | 0.187
129 | GGAAGCCA | -0.211
130 | AGGGGAAG | -0.285
131 | ATCCACTG | -0.0344
132 | ACGGATAG | 0.0888
133 | CCCGTCCA | -0.168
134 | CGCGTTGA | 0.177
135 | ACTGCGAA | 0.0649
136 | AAACAATT | 0.207
137 | CTGGATAC | -0.00847
138 | GACGGAGA | -0.129
139 | ACTTACGG | -0.0522
140 | ATGTTACC | 0.175
141 | TTCGGAAA | -0.0414
142 | GACATAAA | 0.0931
143 | CCATATCG | -0.0398
144 | GTTTTCTA | 0.248
145 | ACATGTAA | 0.221
146 | TGCACGCA | -0.184
147 | CGGGTCTA | -0.153
148 | CCAGAAAA | -0.171
149 | CTAGTGGA | -0.0164
150 | CCTGCGTC | -0.424

Row | Sequence | binding signal [E-score]
151 | GTCTGGGA | -0.214
152 | AGCGGACT | -0.23
153 | GAGTCGGC | -0.169
154 | CTGCCGCA | -0.299
155 | CTAGCCTA | 0.0833
156 | ATTTATGC | 0.191
157 | AGTGCCGG | -0.106
158 | ACAGGGGC | -0.328
159 | CTTCAGCC | -0.32
160 | GCGAGAAA | -0.035
161 | CCATAAAA | 0.123
162 | GAAAGAGC | -0.132
163 | GAAAGCTA | 0.0701
164 | GGATCTAA | 0.139
165 | CATGAATA | 0.177
166 | TCCCGCGA | -0.188
167 | CATACGCC | -0.00911
168 | ATCGGCAG | -0.215
169 | AACGCTAG | 0.127
170 | GCATCTTA | 0.0934
171 | GGCTCCCC | -0.457
172 | GAGGAGAA | -0.0268
